These results are taken from the supplement of paper PMC9446081.

Among all 39,000 compounds or so, about 220 (0.56%) showed activity. The list shows a part of the results.
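Note: static incubation at 37 °C against the wild-type strain, values averaged over two biological replicates.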

The subject of the assay is Escherichia coli K-12 BW25113. In words: relative growth (OD600 normalised to plate interquartile mean) (fraction); higher = less growth inhibition, active = 0.2 or less. The settings on record: 50 µM; LB; incubation time: overnight (16-24 h).
As to `COC[C@@H]1CN(C)N=C(C2CC2)O1`, the relative growth was inactive: 1.04.

As to `C[C@@H]1CCCCO[C@@H](CN(C)Cc2ccc3c(c2)OCO3)[C@H](C)CN([C@H](C)CO)C(=O)c2cc(NC(=O)Nc3ccc4c(c3)OCO4)ccc2O1`, the relative growth was inactive: 1.01.

For `COc1ccccc1-c1cccc(-c2nc(C(=O)NCc3ccncc3)cc3c2[C@@H](CCO)N([S@@](=O)C(C)(C)C)C3)c1`, the relative growth is inactive: 1.01.

In the case of `C[C@@H]1CN([C@H](C)CO)C(=O)c2cccc(NC(=O)c3nc4ccccc4s3)c2O[C@@H]1CN(C)C(=O)Nc1cccc2ccccc12`, the relative growth is inactive: 1.

As for `COc1ccc(CN(C)C[C@H]2OCCCC[C@H](C)Oc3ccc(NC(=O)NC(C)C)cc3C(=O)N([C@@H](C)CO)C[C@@H]2C)cc1`, the relative growth is inactive: 0.928.

In the case of `CO[C@@H]1CN(C)C(=O)c2ccc(NC(=O)C3CC3)cc2OC[C@@H](C)N(C(=O)Cc2ccccn2)C[C@@H]1C`, the relative growth is inactive: 0.981.

Regarding `C[C@@H]1CCCCO[C@H](CN(C)Cc2ccc(C(=O)O)cc2)[C@@H](C)CN([C@H](C)CO)C(=O)c2cc(NS(=O)(=O)c3cccs3)ccc2O1`, the relative growth was inactive: 1.02.

Regarding `O=C(C[C@H]1C=C[C@@H](NC(=O)CN2CCOCC2)[C@@H](CO)O1)NCCc1ccncc1`, the relative growth is inactive: 1.

`C[C@H](CO)N1C[C@H](C)[C@H](CN(C)Cc2ccc(C(=O)Nc3ccccc3N)cc2)OCc2cnnn2CCCC1=O`: the relative growth was inactive: 0.997.

For `Cc1noc(C)c1NC(=O)N(C)C[C@H]1OCCCC[C@@H](C)Oc2ccc(NC(=O)Nc3ccccc3)cc2C(=O)N([C@@H](C)CO)C[C@H]1C`, the relative growth was inactive: 0.989.

As to `CC=Cc1ccc2n(c1=O)C[C@@H]1[C@@H](CO)[C@H](C(=O)NCCc3cn(C)cn3)[C@H]2N1C(=O)CC`, the relative growth was inactive: 1.01.

Consider `COc1ccc(S(=O)(=O)Nc2ccc3c(c2)C(=O)N([C@@H](C)CO)C[C@H](C)[C@@H](CN(C)C(=O)Nc2cccc4ccccc24)OCCCC[C@H](C)O3)cc1`, for which the relative growth was inactive: 1.02.

For `Cc1noc(C)c1NC(=O)Nc1ccc2c(c1)C(=O)N([C@@H](C)CO)C[C@H](C)[C@@H](CN(C)S(=O)(=O)c1ccc(F)cc1)OCCCC[C@H](C)O2`, the relative growth was inactive: 1.02.

Regarding `C[C@@H]1CN([C@@H](C)CO)C(=O)CCCn2cc(nn2)CO[C@@H]1CN(C)C(=O)Nc1ccc(C(F)(F)F)cc1`, the relative growth is inactive: 0.982.

For the molecule `NCc1ccccc1-c1ccsc1`, the relative growth is inactive: 1.03.

As for `COc1ccc(S(=O)(=O)N(C)C[C@H]2Oc3c(NS(C)(=O)=O)cccc3C(=O)N([C@H](C)CO)C[C@H]2C)cc1`, the relative growth was inactive: 0.989.

Turning to `COc1ccc(S(=O)(=O)N(C)C[C@H]2Oc3ccc(NC(=O)CCN4CCOCC4)cc3CC(=O)N([C@@H](C)CO)C[C@H]2C)cc1`, the relative growth is inactive: 1.02.

Turning to `O=C1O[C@@H](c2ccccc2)[C@@H](c2ccccc2)N2[C@@H](c3ccc(OCCO)cc3)[C@]3(C(=O)Nc4ccccc43)[C@@H](C(=O)NC[C@H](O)c3ccccc3)[C@H]12`, the relative growth is inactive: 1.05.

On to `CCC1(C(=O)O)CCNCC1`, for which the relative growth is inactive: 0.963.

For the molecule `COc1ccc(CN(C)C[C@@H]2OCCCC[C@H](C)Oc3ccc(NS(=O)(=O)c4ccc(C)cc4)cc3C(=O)N([C@H](C)CO)C[C@H]2C)cc1`, the relative growth is inactive: 0.966.

In the case of `Cc1ccc(S(=O)(=O)N(C)C[C@H]2OCCCC[C@H](C)Oc3ccc(NC(=O)Nc4ccc(F)cc4)cc3C(=O)N([C@@H](C)CO)C[C@@H]2C)cc1`, the relative growth is inactive: 1.04.

With `COc1ccc(NC(=O)N(C)C[C@@H]2Oc3ncc(C#C[C@H](C)O)cc3C(=O)N([C@@H](C)CO)C[C@@H]2C)cc1`, the relative growth is inactive: 1.02.

With `Cc1noc(C)c1NC(=O)Nc1cccc2c1O[C@@H](CN(C)S(C)(=O)=O)[C@H](C)CN([C@@H](C)CO)C2=O`, the relative growth was inactive: 0.971.

As for `C[C@@H]1CN([C@H](C)CO)C(=O)c2cc(NS(=O)(=O)c3cn(C)cn3)ccc2O[C@@H]1CN(C)Cc1ccc(C(=O)Nc2ccccc2N)cc1`, the relative growth is inactive: 0.995.

As for `O=C(CN1CCOCC1)NCC[C@@H]1CC[C@@H](NS(=O)(=O)c2ccc(Cl)cc2)[C@@H](CO)O1`, the relative growth is inactive: 0.986.

Regarding `CC(C)C#Cc1ccc2c(c1)O[C@@H](CN(C)C(=O)c1cnccn1)[C@@H](C)CN([C@H](C)CO)S2(=O)=O`, the relative growth is inactive: 1.02.

Take `CO[C@H]1C[C@@H]2CC[C@@H](C)[C@@](O)(O2)C(=O)C(=O)N2CCCC[C@H]2C(=O)O[C@H]([C@H](C)C[C@@H]2CC[C@@H](OC(=O)C(C)(CO)CO)[C@H](OC)C2)CC(=O)[C@H](C)/C=C(\C)[C@@H](O)[C@@H](OC)C(=O)[C@H](C)C[C@H](C)/C=C/C=C/C=C/1C`: the relative growth is inactive: 0.936.

For the molecule `O=C(C[C@@H]1CC=CC[C@H](NC(=O)OCC2c3ccccc3-c3ccccc32)C(=O)O[C@H](c2ccccc2)CNC1=O)N[C@@H](CO)Cc1ccccc1`, the relative growth is inactive: 1.02.

On to `Cc1cc(C(=O)Nc2cccc3c2O[C@@H](CN(C)S(=O)(=O)c2cn(C)cn2)[C@@H](C)CN([C@H](C)CO)C3=O)n(C)n1`, for which the relative growth is inactive: 0.989.

Consider `COc1ccc(CN(C)C[C@H]2OCCCC[C@@H](C)Oc3ccc(NS(=O)(=O)c4c(C)noc4C)cc3C(=O)N([C@H](C)CO)C[C@H]2C)cc1`, for which the relative growth was inactive: 1.

Turning to `C[C@@H]1CN([C@@H](C)CO)S(=O)(=O)c2ccc(C#Cc3ccc(F)cc3)cc2O[C@@H]1CN(C)S(=O)(=O)c1ccc(F)cc1`, the relative growth was inactive: 1.04.

Take `O=C1c2ccccc2-c2c(-c3ccccc3)nc3ccccc3c21`: the relative growth is inactive: 1.03.

As to `C[C@@H]1CN([C@@H](C)CO)C(=O)c2cccc(NC(=O)Nc3cccc4ccccc34)c2O[C@@H]1CN(C)Cc1ccc(C(=O)Nc2ccccc2N)cc1`, the relative growth was inactive: 0.97.

As to `C[C@H](CO)N1C[C@H](C)[C@H](CN(C)Cc2ccccc2)OCCCC[C@H](C)Oc2ccc(NS(=O)(=O)c3cccs3)cc2C1=O`, the relative growth was inactive: 1.01.

On to `C[C@H](CO)N1C[C@H](C)[C@H](CN(C)Cc2ccccc2C(F)(F)F)OCc2ccccc2-c2c(n(C)c3ccccc23)C1=O`, for which the relative growth was inactive: 1.02.

Regarding `COc1cc(Cl)ccc1Oc1ccc(Cl)cc1Cl`, the relative growth was inactive: 1.01.

`O=C(Nc1ccc(C(F)(F)F)cc1)Nc1ccc2c(c1)[C@H]1C[C@H](CC(=O)N3CCc4ccccc4C3)O[C@@H](CO)[C@H]1O2`: the relative growth was inactive: 1.05.

For `CN1CCN(C(=O)C[C@H]2CC[C@H]3[C@@H](COC[C@@H](O)CN3C(=O)C3CC3)O2)CC1`, the relative growth was inactive: 0.979.

Consider `CO[C@@H]1CN(C)C(=O)c2ccc(NC(=O)c3ccc(Oc4ccccc4)cc3)cc2OC[C@@H](C)N(C(C)=O)C[C@H]1C`, for which the relative growth was inactive: 0.984.

On to `COc1ccc2c3c(n(c2c1)C)[C@H](CO)N(Cc1cc(cc(c1)OC)OC)C[C@]13CN(C1)S(=O)(=O)c1cn(cn1)C`, for which the relative growth was inactive: 0.987.

For `Cc1noc(C)c1NC(=O)N(C)C[C@H]1Oc2ccc(NS(=O)(=O)c3c(C)noc3C)cc2C(=O)N([C@H](C)CO)C[C@H]1C`, the relative growth is inactive: 0.998.

Consider `C[C@H](CO)N1C[C@H](C)[C@H](CN(C)C(=O)Nc2ccc(F)cc2)Oc2ccc(NS(C)(=O)=O)cc2C1=O`, for which the relative growth was inactive: 0.935.

`C[C@H]1CN([C@@H](C)CO)C(=O)Cc2cc(NC(=O)Nc3ccc(F)cc3)ccc2O[C@H]1CN(C)S(C)(=O)=O`: the relative growth was inactive: 1.

In the case of `C[C@@H]1CCCCO[C@@H](CN(C)C(=O)Nc2cccc3ccccc23)[C@H](C)CN([C@@H](C)CO)C(=O)c2cc(NS(C)(=O)=O)ccc2O1`, the relative growth is inactive: 1.

On to `Cc1n[nH]c(=O)nc1NC1CC1`, for which the relative growth is inactive: 0.918.

On to `Cc1ccc(S(=O)(=O)N(C)C[C@@H]2Oc3ccc(NS(=O)(=O)c4c(C)noc4C)cc3C(=O)N([C@H](C)CO)C[C@H]2C)cc1`, for which the relative growth was inactive: 0.86.

Consider `Cc1noc(C)c1NC(=O)Nc1ccc2c(c1)C(=O)N([C@H](C)CO)C[C@H](C)[C@@H](CN(C)Cc1ccc(C(F)(F)F)cc1)OCCCC[C@H](C)O2`, for which the relative growth is inactive: 0.999.

On to `C[C@H]1CCCCO[C@H](CN(C)S(C)(=O)=O)[C@@H](C)CN([C@@H](C)CO)C(=O)c2cc(NC(=O)c3ccncc3)ccc2O1`, for which the relative growth was inactive: 1.01.

As to `C[C@H]1CN([C@@H](C)CO)S(=O)(=O)c2ccc(Br)cc2O[C@@H]1CN(C)Cc1cccc(F)c1`, the relative growth is inactive: 1.01.

Consider `C[C@H]1CN([C@@H](C)CO)C(=O)c2cccc(NS(=O)(=O)c3ccc(F)cc3)c2O[C@@H]1CN(C)S(=O)(=O)c1ccccc1`, for which the relative growth is inactive: 0.994.

In the case of `CCCN(C)C[C@@H]1OCCCC[C@H](C)Oc2ccc(NC(=O)Nc3cccc4ccccc34)cc2C(=O)N([C@H](C)CO)C[C@@H]1C`, the relative growth is inactive: 0.975.

`COc1ccccc1CCCCN`: the relative growth was inactive: 0.878.

In the case of `CC(=O)NC1C(NC(=N)N)C=C(C(=O)O)OC1C(O)C(O)CO` (stereo not drawn), the relative growth is inactive: 1.09.

As to `C[C@@H]1CN([C@@H](C)CO)C(=O)c2cccc(NC(=O)c3ccncc3)c2O[C@@H]1CN(C)C(=O)Nc1ccc2c(c1)OCO2`, the relative growth was inactive: 1.

For the molecule `COCC#Cc1cnc2c(c1)C(=O)N([C@@H](C)CO)C[C@H](C)[C@@H](CN(C)S(=O)(=O)c1ccccc1)O2`, the relative growth was inactive: 0.978.

As to `CO[C@H]1CN(C)C(=O)c2cc(NS(=O)(=O)CC(F)(F)F)ccc2OC[C@H](C)N(Cc2cccnc2)C[C@@H]1C`, the relative growth was inactive: 0.994.

Take `CCC1(O)C(=O)OCc2c1cc1n(c2=O)Cc2cc3c(CN(C)C)c(O)ccc3nc2-1.Cl` (stereo not drawn): the relative growth is inactive: 1.09.

In the case of `C[C@H]1CCCCO[C@@H](CN(C)Cc2ccc3c(c2)OCO3)[C@@H](C)CN([C@@H](C)CO)C(=O)c2cc(NS(=O)(=O)c3cccs3)ccc2O1`, the relative growth is inactive: 0.969.
